# Experimental data published in patent US20260241026A1, “THERAPEUTIC METHOD FOR LOW-DRUG-SENSITIVITY CANCERS BY ADMINISTRATION OF ANTI-MUC1 ANTIBODY-DRUG CONJUGATE” (priority 2023, published 2026).
# B1: TA-MUC1-DXd ADC: anti-TA-MUC1 antibody PM-N54Q (SEQ ID NO: 11, 12) conjugated to the exatecan-derivative drug-linker via a thioether bond; average 7 to 8 drugs per antibody (conjugate)
# heavy: EVQLVESGGGLVQPGGSMRLSCVASGFPFSNYWMNWVRQAPGKGLEWVGEIRLKSNQYTTHYAESVKGRFTISRDDSKNSLYLQMNSLKTEDTAVYYCTRHYYFDYWGQGTLVTVSS[not shown - human IgG1 constant region]
# light: DIVMTQSPLSNPVTPGEPASISCRSSKSLLHSNGITYFFWYLQKPGQSPQLLIYQMSNLASGVPDRFSGSGSGTDFTLRISRVEAEDVGVYYCAQNLELPPTFGQGTKVEIKRTVAAPSVFIFPPSDEQLKSGTASVVCLLNNFYPREAKVQWKVDNALQSGNSQESVTEQDSKDSTYSLSSTLTLSKADYEKHKVYACEVTHQGLSSPVTKSFNRGEC
# modifications: exatecan-derivative drug-linker, DAR 7-8; Heavy chain of PM-N54Q; Light chain of PM-N54Q/PankoMab-GEX
# notes: average 7 to 8 drugs per antibody
# Assays:
# [1] = test system: bladder cancer PDX model (NIBIO-K071); test: Antitumor test in bladder cancer patient-derived xenograft model NIBIO-K071; type: in vivo, female nude mice; conditions: for antitumor effect after sequential administration: observed about 3 weeks; for ETV (mm^3) Mean: Day 21, Q3W, intravenous
# From the text: NIBIO-[…] was obtained as a bladder cancer patient-derived xenograft model (PDX model) from the National Institute of Biomedical Innovation. A frozen tumor section of NIBIO-[…] was thawed and subcutaneously transplanted to 4- to 6-week old female NSG mice (NOD. Cg-Prkdc Il2rg<tm1Wjl>/SzJ: purchased from Charles River Laboratories Japan, Inc.) using a trocar. Grown tumor was collected, cut into small pieces, and transplanted again to female NSG mice or female nude mice (CAnN. Cg-Foxn1nu/CrlCrlj: purchased from Charles River Laboratories Japan, Inc.) using a trocar, followed by extended growth. TA-MUC1-, Nectin-4-, and TROP2-positive findings were confirmed in the tumor of this model by immunohistochemical staining (IHC). An estimated tumor volume (ETV) was calculated as described below. Estimated tumor volume (volume,mm^3)=Major axis (mm)×Minor axis (mm)^2/2 The female nude mice with transplanted NIBIO-[…] were grouped 25 days after transplantation when their average tumor volume became about 200 mm^3. […] ABS buffer was administered to a Vehicle administration group. Six mice per group were used in all the groups. After initial administration, body weights and tumor sizes were measured twice a week, and estimated tumor volumes were calculated.
# [2] = test system: human breast cancer cell line HCC70; test: Antitumor test in model with transplanted breast cancer cell line HCC70 (Example 3); type: in vivo, female nude mouse
# Description: The mice were grouped 18 days after transplantation when their average tumor volume became about 165 mm^3. […] ABS buffer was administered to a Vehicle administration group. Six mice per group were used in all the groups.
# [3] = test system: lung cancer PDX model (NIBIO-NS1); test: Antitumor test in lung cancer patient-derived xenograft model NIBIO-NS1; type: in vivo, female nude mice
# From the text: NIBIO-NS1 was obtained as a lung cancer PDX model from the National Institute of Biomedical Innovation. A frozen tumor section of NIBIO-NS1 was thawed and subcutaneously transplanted to 5-week old female NSG mice (NOD. Cg-Prkdc Il2rg<tm1Wjl>/SzJ: purchased from Jackson Laboratory Japan, Inc.) using a trocar. Grown tumor was collected, cut into small pieces, and transplanted again to female nude mice (CAnN. Cg-Foxn1nu/CrlCrlj: purchased from Jackson Laboratory Japan, Inc.) using a trocar, followed by extended growth.
# The female nude mice with transplanted NIBIO-NS1 were grouped 10 days after transplantation when their average tumor volume became about 157 mm^3. […] Six mice per group were used in groups 1 and 2, and 12 mice were used in group 3.
# [4] = test system: human breast cancer cell line HCC70; test: Antitumor test in model with transplanted breast cancer cell line HCC70 (Example 5)
# Description: A human breast cancer cell line HCC70 was purchased from ATCC and reconstituted using RPMI 1640 medium (manufactured by Thermo Fisher Scientific Inc.) containing 10% fetal bovine serum. Then, the cells were cultured in an incubator set to 37° C. and 5% CO2, and passaged at a frequency of once to twice a week. […] The suspension was subcutaneously transplanted at 100 μL to each 5-week-old female nude mouse (1×10^7 cells/100 μL/head). The mice were grouped 21 days after transplantation when the average tumor volume in the mice with the transplant became about 198 mm^3.
# Six mice per group were used in groups 1, 2, and 3, and 12 mice was used in group 4. Body weights and tumor sizes were measured once to twice a week, and estimated tumor volumes were calculated. The comparison of drug efficacy between agents was analyzed by the parametric Dunnett's multiple comparison.
# TA-MUC1-DXd ADC was sequentially administered at 10 mg/kg (Q3W×3) to one of the groups, and evaluation and observation were carried out up to Day 84.
molecule,measurement,setting,value
B1,body weight on sequential administration,"[1]; 10 mg/kg after Nectin-4-MMAE ADC or TROP2-SN38 ADC, NIBIO-K071",No reduction in body weight
same,antitumor effect after sequential administration,[1]; 10 mg/kg on Day 21 to the Nectin-4-MMAE ADC administration group,strong regression effect
same,antitumor effect after sequential administration,[1]; 10 mg/kg on Day 28 to the TROP2-SN38 ADC administration group,strong regression effect
same,ETV (mm^3) Mean,"[1]; 3 mg/kg, NIBIO-K071",34 mm^3
same,ETV (mm^3) Mean,"[1]; 10 mg/kg, NIBIO-K071",6 mm^3
same,body weight on sequential administration,"[2]; 10 mg/kg after TROP2-SN38 ADC, HCC70",No reduction in body weight
same,antitumor effect after sequential administration,"[2]; 10 mg/kg on Days 21 and 42 to the TROP2-SN38 ADC administration group, up to Day 65",strong regression effect
same,antitumor effect,"[2]; Day 21, 10 mg/kg Q3W, HCC70",strong regression effect
same,ETV (mm^3) Mean,"[2]; Day 21, 10 mg/kg, Q3W, intravenous, HCC70",19 mm^3
same,body weight on sequential administration,"[3]; 10 mg/kg after TROP2-DXd ADC, NIBIO-NS1",No reduction in body weight
same,tumor course after regrouping of the TROP2-DXd ADC administration group,"[3]; 10 mg/kg on Day 11 to tumors pre-treated with TROP2-DXd ADC, up to Day 31 (TA-MUC1-DXd ADC) or Day 21 (TROP2-DXd ADC)",strong tumor regression effect
same,tumor regression effect,"[3]; Day 11, 10 mg/kg on Day 0, NIBIO-NS1",strong regression effect
same,ETV (mm^3) Mean,"[3]; Day 11, 10 mg/kg, Day 0, intravenous, NIBIO-NS1",51 mm^3
same,body weight on sequential administration,"[4]; 10 mg/kg (Q3W×3) after HER2-DXd ADC, HCC70",No reduction in body weight
same,tumor course after regrouping of the HER2-DXd ADC administration group,"[4]; 10 mg/kg from Day 21 to tumors pre-treated with HER2-DXd ADC, TA-MUC1-DXd ADC Q3W×3 up to Day 84, HER2-DXd ADC up to Day 42",strong tumor regression effect
same,ETV (mm^3) Mean,"[4]; Day 21, 10 mg/kg, intravenous, HCC70",43 mm^3
same,tumor regression effect,"[4]; Day 21, 10 mg/kg, HCC70",strong regression effect
